Source: patent publication US20110306057A1 (Dana-Farber, published 2011)

B1: PP2A regulatory subunit B56α (other, UniProt Q15172 2-486, looked up)
chain: SSSSPPAGAASAAISASEKVDGFTRKSVRKAQRQKRSQGSSQFRSQGSQAELHPLPQLKDATSNEQQELFCQKLQQCCILFDFMDSVSDLKSKEIKRATLNELVEYVSTNRGVIVESAYSDIVKMISANIFRTLPPSDNPDFDPEEDEPTLEASWPHIQLVYEFFLRFLESPDFQPSIAKRYIDQKFVQQLLELFDSEDPRERDFLKTVLHRIYGKFLGLRAFIRKQINNIFLRFIYETEHFNGVAELLEILGSIINGFALPLKAEHKQFLMKVLIPMHTAKGLALFHAQLAYCVVQFLEKDTTLTEPVIRGLLKFWPKTCSQKEVMFLGEIEEILDVIEPTQFKKIEEPLFKQISKCVSSSHFQVAERALYFWNNEYILSLIEENIDKILPIMFASLYKISKEHWNPTIVALVYNVLKTLMEMNGKLFDDLTSSYKAERQREKKKELEREELWKKLEELKLKKALEKQNSAYNMHSILSNTSAE
notes: Endogenous protein found in anti-FLAG immune complexes by immunoblot
B2: PP2A regulatory subunit B56ε (other)
chain: SSAPTTPPSVDKVDGFSRKSVRKARQKRSQSSSQFRSQGKPIELTPLPLLKDVPSSEQPELFLKKLQQCCVIFDFMDTLSDLKMKEYKRSTLNELVDYITISRGCLTEQTYPEVVRMVSCNIFRTLPPSDSNEFDPEEDEPTLEASWPHLQLVYEFFIRFLESQEFQPSIAKKYIDQKFVLQLLELFDSEDPRERDYLKTVLHRIYGKFLGLRAFIRKQINNIFLRFVYETEHFNGVAELLEILGSIINGFALPLKAEHKQFLVKVLIPLHTVRSLSLFHAQLAYCIVQFLEKDPSLTEPVIRGLMKFWPKTCSQKEVMFLGELEEILDVIEPSQFVKIQEPLFKQIAKCVSSPHFQVAERALYYWNNEYIMSLIEENSNVILPIMFSSLYRISKEHWNPAIVALVYNVLKAFMEMNSTMFDELTATYKSDRQREKKKEKEREELWKKLEDLELKRGLRRDGIIPT
notes: as for B1

Experiments:
[1] = target: T1, wild type (WT) FLAG epitope-tagged version of PP2A Aβ (UniProt P30154 1-601); assay: anti-FLAG co-IP from HEK TER cells, immunoblot
T1 construct: also called wtPP2A Aβ; FLAG-tagged Aβ

[2] = target: T2, cancer-derived FLAG-tagged PP2A Aβ mutant ΔE344-E388 (Homo sapiens (Human), UniProt P30154 2-601); assay: anti-FLAG co-IP from HEK TER cells, immunoblot, densitometry
T2 construct: Deletion of exon 9, in-frame deletion of 45 amino acids; Overexpressed in HEK TER cells; also called D344-388

[3] = target: T3, cancer-derived FLAG-tagged PP2A Aβ mutant L101P (UniProt P30154 1-601); assay: as above
T3 construct: Overexpressed in HEK TER cells

[4] = target: T4, cancer-derived FLAG-tagged PP2A Aβ mutant V448A (UniProt P30154 1-601); assay: as above
T4 construct: Overexpressed in HEK TER cells

[5] = target: T5, cancer-derived FLAG-tagged PP2A Aβ mutant L101P/V448A (UniProt P30154 1-601); assay: as above
T5 construct: Overexpressed in HEK TER cells

Binder	binding result [1]	binding result [2]	binding result [3]	binding result [4]	binding result [5]
B1	binds	no binding	no binding	no binding	no binding
B2	binds	no binding			
